Data: PubChem BioAssay AID463173 (ICCB-Longwood Screening Facility, Harvard Medical School, 2010)
About 1,700 (3.3%) of roughly 52,000 compounds were called active. Cut-off read from the data, not from the text of the source: active = survival mostly below about 52% (no sharp cut-off); inactive = mostly above about 56%. The list shows a part of the results.

These compounds were tested on Wild type (assay: growth inhibition of S. aureus wild type versus tarO mutant, primary screen, teichoic acid synthesis inhibitors, RN4220, OD600 (AID 463173)). Settings: S. aureus RN4220 wild type/DeltatarO growth, OD600, 18 h, active compounds read low, screened at 18.75 µg/mL (by protocol).
For `Cc1cccc(NC(=O)Cn2c(=O)n(CCc3ccccc3)c(=O)c3ccccc32)c1`, the survival was inactive: 100%.
In the case of `Oc1ccccc1C(C#Cc1ccccc1)N1CCOCC1` (stereo not drawn), the survival is reported as inactive: 110%.
In the case of `COc1ccc(C2C(C(=O)Nc3ccccc3)=C(C)Nc3nc(-c4ccccc4)nn32)c(OC)c1` (stereo not drawn), the survival is reported as inactive: 105%.
With `COC(=O)c1cc2oc3ccccc3c2n1CC(=O)Nc1cccc(SC)c1` the survival was inactive: 71%.
`CCCOc1cccc(C(=O)Nc2cc(-c3nc4ccccc4[nH]3)ccc2C)c1` was tested, and the survival was inactive: 71%.
In the case of `CCCc1cnc2c(c1SCc1cccc(C)c1)c(=O)n(C)c(=O)n2C`, the survival is reported as inactive: 75%.
In the case of `COc1ccc(S(=O)(=O)NCCc2sc(C)nc2C)cc1`, the survival is reported as inactive: 67%.
`COC(=O)CSc1nc2c(cc1C#N)CCCC2` was tested, and the survival was inactive: 130%.
In the case of `COc1cc(OC)c(NC(=O)c2sc3nc4n(c(=O)c3c2C)CCCC4)cc1Cl`, the survival is reported as inactive: 89%.
For `CCCCC(=O)N1CC(=O)Nc2ccc(F)cc2C1c1ccc(F)cc1` (stereo not drawn), the survival was inactive: 83%.
In the case of `COc1ccc(-n2c(-c3ccccc3F)nc3c(cnn3-c3ccc(C)cc3)c2=O)cc1`, the survival is reported as inactive: 90%.
With `CCOc1cc(Cn2c(-c3ccc(O)c(OCC)c3)nc3ccccc32)ccc1O` the survival was inactive: 80%.
With `N#Cc1c(N)sc2c1CCCC2` the survival was inactive: 81%.
With `O=C(CC1C(=O)OCCN1Cc1ccccc1)Nc1cccc(Cl)c1` (stereo not drawn) the survival was inactive: 138%.
`Cc1ccc(CCNC(=O)CN2C(=O)COc3ccc(S(=O)(=O)N4CCCC4)cc32)cc1` was tested, and the survival was inactive: 81%.
In the case of `Cc1cc(C)cc(NC(=O)c2nnn(Cc3cccc(Br)c3)c2N)c1`, the survival is reported as inactive: 80%.
In the case of `Cc1ccc(S(=O)Cc2ccc(C(=O)NCc3ccc(OC(C)C)cc3)o2)cc1` (stereo not drawn), the survival is reported as inactive: 59%.
With `Cc1nc2c3cccnc3nn2c(C)c1CCC(=O)NCc1ccccc1Cl` the survival was inactive: 125%.
`O=C1CC(SCc2nc3ccccc3[nH]2)C(=O)N1c1ccc(F)cc1` (stereo not drawn) was tested, and the survival was inactive: 88%.
`Cc1ccc2c(Sc3ccccc3)c(C(=O)NCc3ccccc3F)[nH]c2c1` was tested, and the survival was inactive: 91%.
For `CCOc1ccccc1NC(=O)CSc1nc2ccccc2nc1Cc1ccc(C)cc1`, the survival was inactive: 77%.
`CC(=O)OC(C(=O)NC1CCCCC1)c1ccccc1` (stereo not drawn) was tested, and the survival was inactive: 111%.
`CC(=O)c1ccc(NC(=O)c2sc(-n3nc(C)c(CCC(C)C)c3C)nc2C)cc1` was tested, and the survival was inactive: 103%.
With `CN=C1S/C(=C\c2cn(CC(=O)NCc3ccco3)c3ccccc23)C(=O)N1C` the survival was inactive: 109%.
`CCn1c(CNC(=O)C23CC4CC(CC(C4)C2)C3)nnc1SCC(=O)Nc1ccc(C)cc1` was tested, and the survival was inactive: 82%.
`CC(=O)Nc1ccccc1-c1nc2ccccc2n(C(C)C(=O)Nc2cc(Cl)ccc2C)c1=O` (stereo not drawn) was tested, and the survival was inactive: 83%.
With `CCN(CC)S(=O)(=O)c1nnc(NC(=O)COc2ccc(C)cc2)s1` the survival was inactive: 85%.
In the case of `CC(=O)Nc1ccc(NC(=O)CCc2c(C)nc3c(c(C)nn3-c3ccc(C)cc3)c2C)cc1`, the survival is reported as inactive: 129%.
`CCCn1c(SCC(=O)c2ccccc2)nnc1C(C)C` was tested, and the survival was inactive: 105%.
In the case of `CCOc1ccc(NC(=O)c2ccc(CN3C(=O)C(C)=C(c4ccc(C)cc4)S3(=O)=O)cc2)cc1`, the survival is reported as inactive: 77%.
For `Cc1ccc(C)c(NC(=O)CSc2nnc(CNC(=O)c3ccccc3)n2-c2ccccc2)c1`, the survival was inactive: 63%.
`CCC(=O)Nc1ccccc1-c1nc2ccccc2n(Cc2cccc(Br)c2)c1=O` was tested, and the survival was inactive: 87%.
`C=CCN(CC=C)C(=O)C1CCN(S(=O)(=O)c2ccc(-n3cnnn3)cc2)CC1` was tested, and the survival was inactive: 100%.
For `O=C(Nc1ccccc1Cl)c1ccc(F)c(S(=O)(=O)NCc2ccc(Cl)c(Cl)c2)c1`, the survival was inactive: 69%.
`COc1ccc(CN2CCCN(CC(=O)Nc3cc(C)ccc3C)S2(=O)=O)cc1` was tested, and the survival was inactive: 80%.
In the case of `CCOC(=O)c1sc(N2C(=O)c3oc4cc(C)c(C)cc4c(=O)c3C2c2ccc(C)cc2)nc1C` (stereo not drawn), the survival is reported as inactive: 149%.
In the case of `CC(=O)N1CCCc2cc(S(=O)(=O)N(CCN(C)C)Cc3ccccc3)ccc21`, the survival is reported as inactive: 74%.
`CCc1ccc2oc(C(=O)NCC(c3ccc(Cl)cc3)N3CCOCC3)c(C)c2c1` (stereo not drawn) was tested, and the survival was inactive: 75%.
In the case of `CCOC(=O)c1c(C)oc2nc(C)nc(Nc3cc(C)cc(C)c3)c12`, the survival is reported as inactive: 82%.
With `Cc1ccc(-n2ncc3c(N4CCCCC4)ncnc32)cc1Cl` the survival was inactive: 64%.
In the case of `COc1ccc(-c2cc(OC(=O)c3ccccc3C)c3c(C)oc(C)c3c(=O)c2)cc1`, the survival is reported as inactive: 67%.
With `CCc1cccc(C)c1NC(=O)c1cc(S(=O)(=O)N(C)Cc2ccccc2)ccc1F` the survival was inactive: 124%.
`O=C1c2cccnc2C(=O)N1c1ccc(-c2nc3cc(Cl)ccc3o2)cc1` was tested, and the survival was inactive: 105%.
For `CC1Cc2ccccc2N1C(=O)C1CCN(S(=O)(=O)Cc2ccccc2)CC1` (stereo not drawn), the survival was inactive: 108%.
With `O=C(CSc1nc2ccccc2n1Cc1ccc(F)cc1)N1CCN(c2ccc(F)cc2)CC1` the survival was inactive: 69%.
`CC1CCN(C(c2nnnn2Cc2ccccc2)C(C)C)CC1` (stereo not drawn) was tested, and the survival was inactive: 109%.
`Cc1csc2nc(COC(=O)c3ccc(F)cc3)cc(=O)n12` was tested, and the survival was inactive: 81%.
With `Cc1ccc(C)c(NC(=O)Cn2cnc3c(oc4ccccc43)c2=O)c1` the survival was inactive: 86%.
In the case of `Cc1cc(C)cc(-n2nnnc2SCC(=O)Nc2cccc(NC(=O)c3ccco3)c2)c1`, the survival is reported as inactive: 107%.
With `CCc1ccc(C2=CC(c3cccc(C)c3)n3c(nc4ccccc43)N2)cc1` (stereo not drawn) the survival was inactive: 87%.
With `Cc1cccc(N(CC(=O)NCc2ccccc2)S(C)(=O)=O)c1C` the survival was inactive: 69%.
In the case of `Cc1ccc2[nH]cc(NC(=O)NCc3ccco3)c(=O)c2c1`, the survival is reported as inactive: 109%.
`CCc1ccc(-c2nc(CN3CCC(C(=O)NCCc4ccc(C)cc4)CC3)c(C)o2)cc1` was tested, and the survival was inactive: 85%.
With `Cc1cc(C)nc(NS(=O)(=O)c2ccc(NC(=S)NC(=O)/C=C/c3ccco3)cc2)n1` the survival was inactive: 122%.
For `O=C(NCc1ccco1)c1ccccc1`, the survival was inactive: 110%.
For `O=C(Nc1ccc(OCc2cc(=O)n3ccsc3n2)cc1)c1ccc(F)cc1`, the survival was inactive: 92%.
With `Cc1nnc(N2CCC(C(=O)NCCc3ccccc3)CC2)c2nn(-c3ccccc3)c(C)c12` the survival was inactive: 91%.
For `COc1ccc(CNC(=O)CSCc2nc(-c3ccccc3F)oc2C)cc1`, the survival was inactive: 90%.
